Here are results for eleven molecules from PMC6800368, “Rotational symmetry of the structured Chip/LDB-SSDP core module of the Wnt enhanceosome” (Proceedings of the National Academy of Sciences of the …, 2019).

Changes are numbered by the printed parent chain. Names may count otherwise. Results are given in words; binding and its absence hold for the method and conditions named. For some assays here: Binding seen in cells or lysates may run through a third protein. Some entries that bind do so weakly or less than the wild type. For some assays here: Sequences can lack the tags named with a protein.

Experiment [1] has as its target T1, DD-LCCD1 (XLdb1 20-244) (Xenopus laevis) (UniProt P70060).
T1 sequence: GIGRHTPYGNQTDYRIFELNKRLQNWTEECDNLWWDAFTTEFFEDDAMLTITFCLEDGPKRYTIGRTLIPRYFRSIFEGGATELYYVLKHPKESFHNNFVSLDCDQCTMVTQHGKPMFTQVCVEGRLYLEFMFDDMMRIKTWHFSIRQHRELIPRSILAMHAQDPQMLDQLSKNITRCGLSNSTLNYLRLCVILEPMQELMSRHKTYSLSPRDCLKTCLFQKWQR
Nature of the experiment: co-purification after bacterial coexpression; bicistronic coexpression of SSDP_(1–92) and DD-LCCD from XLdb1 in E. coli; complexes purified (Ni-NTA, gel filtration). For orientation: In gel filtration, larger molecules generally elute earlier.

Experiment [2] addresses T2, DD-LCCD2 (XLdb1 20-226) (Xenopus laevis) (UniProt P70060).
T2 sequence: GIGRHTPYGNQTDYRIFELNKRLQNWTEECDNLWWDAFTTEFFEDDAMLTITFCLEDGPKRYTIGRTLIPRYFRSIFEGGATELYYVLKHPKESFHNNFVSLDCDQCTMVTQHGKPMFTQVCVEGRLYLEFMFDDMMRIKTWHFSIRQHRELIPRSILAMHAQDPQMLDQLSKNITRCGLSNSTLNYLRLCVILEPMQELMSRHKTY
The experiment is described as above.

In experiment [3] the target is T3, MBP-LCCD_(Chip) (Drosophila, UniProt Q7KVG9-2 384-436).
T3 construct: Drosophila Chip, LCCD, residues 384-436; also called Chip-LCCD (residues 384 to 436); source: E. coli BL21(DE3)-RIL, bicistronic coexpression with Lip-SSDP_(1–92), purified (Ni-NTA, gel filtration)
T3 sequence (looked up): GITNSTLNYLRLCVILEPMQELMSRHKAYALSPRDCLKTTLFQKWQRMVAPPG
Nature of the experiment: SEC-MALS; MBP-LCCD_(Chip) (WT or Mα6) coexpressed with Lip-SSDP_(1–92) (WT, V65K, Mα3 or ML), purified; Superdex-200 10/300, 2 mg/mL, PBS, 1 mM DTT; PAGE of SEC fractions; both purified.

Experiment [4] addresses T4, Chip-V5FLAG (Drosophila) (UniProt Q7KVG9).
T4 sequence: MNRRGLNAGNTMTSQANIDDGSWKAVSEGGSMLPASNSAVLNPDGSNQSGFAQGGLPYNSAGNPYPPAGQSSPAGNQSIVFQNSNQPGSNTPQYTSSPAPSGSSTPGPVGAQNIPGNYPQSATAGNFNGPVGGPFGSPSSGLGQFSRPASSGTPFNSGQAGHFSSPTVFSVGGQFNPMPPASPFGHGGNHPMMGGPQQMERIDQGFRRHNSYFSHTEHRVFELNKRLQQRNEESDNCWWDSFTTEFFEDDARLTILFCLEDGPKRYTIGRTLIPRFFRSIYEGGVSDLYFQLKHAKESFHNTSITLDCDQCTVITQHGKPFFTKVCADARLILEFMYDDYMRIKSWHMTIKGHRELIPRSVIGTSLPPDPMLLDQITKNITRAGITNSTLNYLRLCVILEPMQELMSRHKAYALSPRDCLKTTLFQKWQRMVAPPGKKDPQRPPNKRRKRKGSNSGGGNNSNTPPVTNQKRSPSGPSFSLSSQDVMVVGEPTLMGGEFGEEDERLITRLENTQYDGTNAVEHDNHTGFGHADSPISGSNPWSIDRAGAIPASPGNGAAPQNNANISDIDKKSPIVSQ
The experiment is described as follows: co-IP; Chip-V5FLAG (WT or mutant) coexpressed with SSDP-V5 (WT or mutant) in HEK293T cells.

The target of experiment [5] is T5, SSDP-FLAG (Drosophila) (UniProt Q9VEB9).
T5 sequence: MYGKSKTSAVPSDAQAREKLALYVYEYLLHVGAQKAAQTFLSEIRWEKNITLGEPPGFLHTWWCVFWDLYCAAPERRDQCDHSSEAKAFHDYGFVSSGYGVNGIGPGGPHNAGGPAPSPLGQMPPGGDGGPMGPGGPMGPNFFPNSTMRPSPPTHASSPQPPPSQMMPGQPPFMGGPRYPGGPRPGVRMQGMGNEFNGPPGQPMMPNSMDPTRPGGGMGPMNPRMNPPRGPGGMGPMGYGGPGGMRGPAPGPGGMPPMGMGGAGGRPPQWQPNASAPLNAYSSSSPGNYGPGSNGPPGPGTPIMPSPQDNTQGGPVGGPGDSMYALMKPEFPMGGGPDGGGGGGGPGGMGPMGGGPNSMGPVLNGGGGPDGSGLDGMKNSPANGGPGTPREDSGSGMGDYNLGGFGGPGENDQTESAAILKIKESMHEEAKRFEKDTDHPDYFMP
The experiment is described as follows: co-IP; SSDP-FLAG coexpressed with WT or mutant SSDP-V5 in HEK293T LDB1/LDB2 DKO cells.

B1: SSDP_(1–92) (coexpressed with XLdb1 DD-LCCD) (domain or fragment, UniProt Q9VEB9 1-92)
chain: MYGKSKTSAVPSDAQAREKLALYVYEYLLHVGAQKAAQTFLSEIRWEKNITLGEPPGFLHTWWCVFWDLYCAAPERRDQCDHSSEAKAFHDY
Regarding B1, the binding entry in experiment [1] and in experiment [2] was “binds” in each case.

B2: Lip-SSDP_(1–92) Mα3 (F66E L69A Y70A) (domain or fragment, UniProt Q9VEB9 1-92)
chain: B1 chain with F66E, L69A, Y70A
Turning to B2, in experiment [3], the binding entry was “no binding”.

B3: Lip-SSDP_(1–92) V65K (domain or fragment, Drosophila, UniProt Q9VEB9 1-92, looked up)
chain: B1 chain with V65K
notes: Drosophila SSDP, residues 1-92; also called SSDP V65K; source: E. coli BL21(DE3)-RIL, purified (Ni-NTA, gel filtration); alone or coexpressed with MBP-LCCD
For the molecule B3, the binding result in experiment [3] is reported as “no binding”.

B4: SSDP-V5 ML (I50E L52E) (protein, UniProt Q9VEB9 1-445)
chain: T5 sequence with I50E, L52E
As to B4, the binding entry in experiment [4] is “binds”.

B5: SSDP-V5 D68R (protein, UniProt Q9VEB9 1-445)
chain: T5 sequence with D68R
In the case of B5, the binding entry in experiment [4] was “binds”.

B6: SSDP-V5 P55E (protein, UniProt Q9VEB9 1-445)
chain: T5 sequence with P55E
Consider B6, for which the binding entry in experiment [5] is “no binding”.

B7: SSDP-V5 I50E (protein, UniProt Q9VEB9 1-445)
chain: T5 sequence with I50E
As for B7, the binding entry in experiment [5] is “no binding”.

B8: SSDP-V5 V65K (protein, UniProt Q9VEB9 1-445)
chain: T5 sequence with V65K
For B8, the binding result in experiment [4] is recorded as “no binding”.

B9: SSDP-V5 F58E (protein, UniProt Q9VEB9 1-445)
chain: T5 sequence with F58E
In the case of B9, the results for the binding entry in experiment [5] and in experiment [4] were “no binding” and “binds”, respectively.

B10: SSDP-V5 Mα3 (F66E L69A Y70A) (protein, UniProt Q9VEB9 1-445)
chain: T5 sequence with F66E, L69A, Y70A
As to B10, the binding entry in experiment [5] and in experiment [4] was “binds” each time.

B11: SSDP-V5 L52E (protein, UniProt Q9VEB9 1-445)
chain: T5 sequence with L52E
On to B11, for which the binding result in experiment [5] is “no binding”.
